Test results as given in the RNAGym collection of RNA variant scans (doi:10.7554/elife.90254).
Read counts are not given, so values of variants with three or more changes are uncertain.

B1: LINE1-full (parent)
chain: UACGUAGGUGGUUUUCCCCUGAUAGUGCUAAGGGGGCCUGGAAGUUUGGACUGGGCAGAGCUCAACACAGCGUGGCAAAGUGGCUGUGGCUAGACUGCCUCUCUGGAUUCCUCGUCACUCAGCAGGGCAUCUCUGAGAGAAAUGCC

Variants of: B1
Test: self-cleavage, relative activity (ratio to wild type); higher = more cleavage; in vitro, sequencing; the parent is a self-cleaving ribozyme

| Variant | self-cleavage |
| --- | --- |
| U12C G35A G48C C103U U104A U112C G114A | 1.64 |
| U12C G35A U85C | 0.12 |
| U12C G36A A79G U85A | 0.14 |
| U12C G36U U47C U73A G82A | 2.07 |
| U12C G40A A42G A67G U108C | 0.81 |
| U12C G41U G49A A117U | 1.55 |
| U12C G41U U108C U112C G114A | 1.72 |
| U12C G44A U62C | 0.18 |
| U12C G44A U132C | 1.57 |
| U12C G44U U73A U132C A140G | 2.14 |
| U12C G49A A67G | 0 |
| U12C G53A A92U U119C | 0.74 |
| U12C G53A U87C A124G | 0.12 |
| U12C G54A A59G A138G | 0 |
| U12C G60A U87C | 0.2 |
| U12C G74A G126A | 1.03 |
| U12C G88A U119C | 0.15 |
| U12C G93C G126A | 0.03 |
| U12C U13A U14C U45C U96C | 0 |
| U12C U13A U39C A65G U100C | 0 |
| U12C U13C A43U A77U U108C U112C U130A | 2.76 |
| U12C U13C U15A U23C U100C | 0 |
| U12C U13C U85A U132C A142G | 0.48 |
| U12C U14A A77U U119C | 2.38 |

| Variant | self-cleavage |
| --- | --- |
| U12C U14A G93A | 0.12 |
| U12C U14A U23C U73A | 1.2 |
| U12C U14C A50G U73A A136G | 0.66 |
| U12C U14C A78G U87A | 0.16 |
| U12C U14C A107G A138G | 1.59 |
| U12C U14C A124U | 1.37 |
| U12C U14C A141G U143C | 1.89 |
| U12C U14C G55A C90A A129U | 0.05 |
| U12C U14C U20C A65G A69C G80A | 0.17 |
| U12C U14C U85G | 0.47 |
| U12C U14C U87A A142G | 0.21 |
| U12C U14C U134A A140G | 0.49 |
| U12C U14C U143C | 1.07 |
| U12C U15A A67U A129G | 0.08 |
| U12C U15A A141U A142U | 0.65 |
| U12C U15A C37U U115C | 1.38 |
| U12C U15A U46C U96A U143A | 0 |
| U12C U15C A30G A50G G55C G74A | 0.35 |
| U12C U15C A42U A124U U143C | 0.66 |
| U12C U15C A69U A77G U132C | 0.2 |
| U12C U15C U26C A79G G122A | 1.53 |
| U12C U15C U47A A92G U102C | 0 |
| U12C U15C U47C A136G | 0.82 |
| U12C U15C U52C A67U U109A | 0.38 |

| Variant | self-cleavage |
| --- | --- |
| U12C U15C U62C | 0.12 |
| U12C U15C U119A | 1.51 |
| U12C U15G A31U U112A U119A C120U A121U A141U | 0.37 |
| U12C U20A A65U U96A | 0.03 |
| U12C U20A G35A G86U U87C | 0.07 |
| U12C U20A G48U U96C | 0.19 |
| U12C U20A U39A G74U A94U U115C U134C A142G | 0.77 |
| U12C U20A U102A | 1.17 |
| U12C U20A U104G A138G | 1.2 |
| U12C U20C A57U U73C A117U A124G | 0 |
| U12C U20C A59G A77G A78U U100A A141G | 0 |
| U12C U20C G21C A77G G86A | 0.47 |
| U12C U20C U85C | 0.63 |
| U12C U20G A42G U52A A141G | 1.47 |
| U12C U23C A117G A136U | 1.79 |
| U12C U23C G35U | 0.92 |
| U12C U23C U47C A57G | 0 |
| U12C U23G U87A C95U | 0.05 |
| U12C U26A A59U | 0.71 |
| U12C U26A C128A | 0.44 |
| U12C U26A U85C U143C | 0.3 |
| U12C U26A U102C | 1.37 |
| U12C U26C A138G | 1.96 |
| U12C U26C U39A U87G | 0.47 |

| Variant | self-cleavage |
| --- | --- |
| U12C U26C U45C | 0.88 |
| U12C U26C U143C | 1.2 |
| U12C U29A A65U A129U | 0.37 |
| U12C U29C A43G A117G A129U | 0 |
| U12C U39A A65G A140G | 0.07 |
| U12C U39A A67G G106U | 0.76 |
| U12C U39A U132C | 1.66 |
| U12C U39C A43G A67C A77U U85A | 0.42 |
| U12C U39C G137A A140G | 0.81 |
| U12C U39C U96A U109A | 0.1 |
| U12C U45C A57G U87C | 0 |
| U12C U45C A107G | 0.46 |
| U12C U45C U85C | 0 |
| U12C U46A A79U | 1.82 |
| U12C U46C A77G | 0.63 |
| U12C U46C A141G | 2.16 |
| U12C U46C U47A U119A A121G | 1.65 |
| U12C U46C U47C U85A U104C U108C | 1.84 |
| U12C U47A A50G U115C A138G | 2.3 |
| U12C U47A A59G U87C A138G A140G | 0.32 |
| U12C U47A A79G A141G | 0.74 |
| U12C U47A A140U | 1.31 |
| U12C U47A U109G U115C A142G | 0 |
| U12C U47C A50C | 2 |

| Variant | self-cleavage |
| --- | --- |
| U12C U47C A50G | 1.91 |
| U12C U47G A65G A141G | 0 |
| U12C U47G A69G U104A | 0 |
| U12C U52A A77G C84A | 0.49 |
| U12C U52C A64U U130A | 0.87 |
| U12C U52C G80A A117G | 2.74 |
| U12C U52C U62C U81A A121G A124G G127A | 0 |
| U12C U52G U132C | 2.25 |
| U12C U62C A129U | 0.13 |
| U12C U62C U102C C120A A129G U132C | 0.13 |
| U12C U73A A78U U91C | 0.56 |
| U12C U73A A79G | 0.92 |
| U12C U73A A92G | 0.28 |
| U12C U73A U85C U96C A129G | 0 |
| U12C U73C A94G | 0.42 |
| U12C U73C A138C | 2.3 |
| U12C U81C U134C A140G | 0.54 |
| U12C U87C C146U | 0.65 |
| U12C U91C A140U | 1.03 |
| U12C U96A A142G U143C | 0.19 |
| U12C U96C A140G | 0 |
| U12C U96C U112C A117U A141G | 0.35 |
| U12C U96G A124U A140G | 0 |
| U12C U102A A136G | 0.62 |

| Variant | self-cleavage |
| --- | --- |
| U12C U102C U115A | 0.18 |
| U12C U104A U112C | 0.8 |
| U12C U104C A107G | 2.16 |
| U12C U104C U119C | 1.6 |
| U12C U108A C123U | 1.65 |
| U12C U108C U112A U115C A142G | 0 |
| U12C U112A A136G A141G | 2.01 |
| U12C U115C A136G | 2.02 |
| U12C U134C A138G | 0 |
| U12C U134C A140G | 0.86 |
| U12C U134C U143C | 2.13 |
| U12C U134G A141G | 0.74 |
| U12G A22G A65U A138G | 0 |
| U12G A22G G34A U46C U52C U87C G88A | 0.27 |
| U12G A22G G36U U132C A136C | 1.08 |
| U12G A22G U46C A138G | 1.7 |
| U12G A22G U73A U115A | 1.14 |
| U12G A24G C56U U102C A117G | 0.46 |
| U12G A30G A69U U73A | 0 |
| U12G A30U C61U U87C | 0.13 |
| U12G A31G U62C U73C U112A | 0 |
| U12G A31G U102C U104A | 0 |
| U12G A42G A92G | 0.36 |
| U12G A42G U46C A65G | 0 |

| Variant | self-cleavage |
| --- | --- |
| U12G A42G U47A A57C U109A | 0 |
| U12G A42G U52A U81A | 0.99 |
| U12G A42G U134C | 0.71 |
| U12G A42U U134A | 0.38 |
| U12G A43G A124U A138U | 1.26 |
| U12G A43G G72A | 0.71 |
| U12G A50C U112A A117G | 1.53 |
| U12G A50G G72U A121U U132C A140U | 0.73 |
| U12G A50G U96A | 0 |
| U12G A57U U130A | 0.17 |
| U12G A59U U112C | 0.52 |
| U12G A64G A107G U130C | 0 |
| U12G A64G C71U U96A U100C | 0.12 |
| U12G A64G U134C | 0.41 |
| U12G A64U A136G | 0.7 |
| U12G A64U U112C A142G | 0.76 |
| U12G A69G U87C G89A | 0.16 |
| U12G A69U U102C C113U | 0.2 |
| U12G A78G U96A A129G | 0 |
| U12G A92G U100A A129G | 0.32 |
| U12G A94C U132C | 0.45 |
| U12G A107G G127A | 0.87 |
| U12G A107G U109C C113U | 0.82 |
